Measurements as given in patent US9884084B2, “Bone loss preventing and bone regeneration or bone formation promoting pharmaceutical composition comprising muramyl dipeptide” (SNU R&DB FOUNDATION, priority 2012, dated 2018).

Tested on: bone marrow macrophages (BMMs)
Assay: Osteoclast differentiation from bone marrow macrophages, TRAP staining
Conditions: 20 ng/ml M-CSF and 20 ng/ml RANKL, 3 days; FIG. 7
Procedure: Bone marrow cells (BMs) were isolated from the long bones of mouse and were cultured in α-MEM supplemented with 10% FBS, 100 U/ml penicillin and 100 μg/ml streptomycin, and 2 ng/ml M-CSF for 1 day. Suspended cells were differentiated into BMMs with 20 ng/ml M-CSF for 3 days. The BMMs were incubated with 20 ng/ml M-CSF and 20 ng/ml RANKL in the presence or absence of MDP for additional 3 days. To make RANKL-primed osteoclast precursors, the BMMs were stimulated with 20 ng/ml mouse RANKL for 48 h. The BMMs were incubated with 20 ng/ml M-CSF in the presence or absence of MDP for additional 3 days.
The differentiation was determined by tartrate resistant acid phosphatase (TRAP) staining using Leukocyte acid phosphate-staining kit (Sigma-Aldrich Chemical, USA) according to the manufacturer's instruction. After the staining, TRAP-positive multinucleated cells with at least 3 nuclei were enumerated as mature osteoclasts with an inverted phase-contrast microscope and results are shown in FIG. 7.

Substance: N-acetylmuramyl-L-Alanyl-D-Isoglutamine [MDP]
- differentiation into osteoclast from bone marrow macrophages (TRAP-positive multinucleated cells): did not affect
